Measurements as given in the supplement of paper PMC11417369.
The other results are listed elsewhere or left out.

tested on: PfHDP1 homeodomain (GST-tagged); assay: gcPBM binding intensity (ln(normalized median fluorescence intensity)); higher = stronger DNA binding
Procedure, shortened: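 For binding intensity, the highest Masliner-normalised natural-log median intensity across replicate spots of either probe orientation was taken. Protein bound to the array was stained with Alexa488 anti-GST antibody and scanned at 488 nm. The protein, GST-tagged P. falciparum DNA-binding domains from E. coli at about 25 μg on average, had been applied for 1 h to an Agilent 4 × 180k array of primer-extended double-stranded 36-bp intergenic genomic probes and negative controls.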

In order of rising “gcPBM binding intensity (ln)” value:
1. TTTTAATTAAATAAATGTACTCATTCTATTATTTAT [XGTACX_site3032]  6.02
2. TTATATTTATAAAGGTGTACCTTAAAATGATTTTAC [XGTACX_site3774]  6.11
3. TATTTTTTAAAAAATTATAAATAAAATTATATTACG [CACACA_negctrl_site324]  6.18
4. AAAAAAAAAAATTAAAGTACTAATTAAAATTATATG [XGTACX_site5289]  6.22
5. ACAGTATATTAAAAAATACACACGTATTATATCTAC [CACACA_site2640]  6.26
6. AGAAAAATTACAAAATGTACATAATGTGTTATTAAT [XGTACX_site7877]  6.33
7. ATTAAGTACTAAAAAGTGCAGTTCGGTACTGTGCTT [GTGCAC_site9755]  6.42
8. TATAATATATTCACTCGTACATATTTAATAATATCT [XGTACX_site6209]  6.47
9. AAAATTAAATAAAAATGTACAGAAATATTATATGAA [XGTACX_site5695]  6.52
10. ATATATTATATTAATTGTACATAAAAAAGAGAAAAA [XGTACX_site3366]  6.65
11. ATTAAATATGAGGGAACACACACATGATATATAAAT [CACACA_site8755]  6.84
12. AAATTCAATTTGCGCTGTACATGAAGATATAAATTT [XGTACX_site4844]  6.87
13. ATAAATTTTTTATGAACACACAAATACCCACGCTCA [CACACA_site2659]  6.88
14. AAAAAAAACACGCGCACACACACACCCACAGACACA [CACACA_site5253]  6.89
15. CCAAAAAATATATGTAGTACTACATTATTAAATATG [XGTACX_site5128]  6.95
16. AATAAAAAACATGAAAGTACTTTAAAAAAGGTAATA [XGTACX_site1897]  7.03
17. ATACCTGTTGTGTTACGTACATAATTTTAATGTTTG [XGTACX_site8181]  7.08
18. TATATATATAAATACACACACACACCCCAAAGCGTA [CACACA_site4211]  7.32
19. TATATATATATAATATGTACATATATTAAGCATTTT [XGTACX_site4470]  8.65
20. AATATATAAATCAATAGTACATATATATATATATAT [XGTACX_site3898]  9.29
21. ATGTATAAACAAAAGGGTACATATATATATATATAT [XGTACX_site2087]  9.31
22. TTATATAAAGAATGTACACACAGAAATGCACCCACA [CACACA_site2282]  9.38
23. AAGTACATACATAAAACACACACATATATATATATA [CACACA_site8541]  9.39
24. TATTACACATATTATGTGCACATATATAATCAATAT  10.9
25. ATTTTATTTTTGTGCACACTGATAAATTGAAAAGAG [CACACA_site2948]  11.1
